Laboratory results as given in paper PMC4336329 (PLoS ONE, 2015).
Out of some 310,000 compounds screened, about 2,200 (0.71%) showed an effect of 50% or more. The effect is printed as a negative number. The list shows a part of the results.

These compounds were tested against human ether-à-go-go-related gene (hERG) potassium channel (human, UniProt Q12809) (assay: primary screen, population patch clamp on CHO cells stably expressing hERG).
Chain of human ether-à-go-go-related gene (hERG) potassium channel (Q12809 whole entry, looked up): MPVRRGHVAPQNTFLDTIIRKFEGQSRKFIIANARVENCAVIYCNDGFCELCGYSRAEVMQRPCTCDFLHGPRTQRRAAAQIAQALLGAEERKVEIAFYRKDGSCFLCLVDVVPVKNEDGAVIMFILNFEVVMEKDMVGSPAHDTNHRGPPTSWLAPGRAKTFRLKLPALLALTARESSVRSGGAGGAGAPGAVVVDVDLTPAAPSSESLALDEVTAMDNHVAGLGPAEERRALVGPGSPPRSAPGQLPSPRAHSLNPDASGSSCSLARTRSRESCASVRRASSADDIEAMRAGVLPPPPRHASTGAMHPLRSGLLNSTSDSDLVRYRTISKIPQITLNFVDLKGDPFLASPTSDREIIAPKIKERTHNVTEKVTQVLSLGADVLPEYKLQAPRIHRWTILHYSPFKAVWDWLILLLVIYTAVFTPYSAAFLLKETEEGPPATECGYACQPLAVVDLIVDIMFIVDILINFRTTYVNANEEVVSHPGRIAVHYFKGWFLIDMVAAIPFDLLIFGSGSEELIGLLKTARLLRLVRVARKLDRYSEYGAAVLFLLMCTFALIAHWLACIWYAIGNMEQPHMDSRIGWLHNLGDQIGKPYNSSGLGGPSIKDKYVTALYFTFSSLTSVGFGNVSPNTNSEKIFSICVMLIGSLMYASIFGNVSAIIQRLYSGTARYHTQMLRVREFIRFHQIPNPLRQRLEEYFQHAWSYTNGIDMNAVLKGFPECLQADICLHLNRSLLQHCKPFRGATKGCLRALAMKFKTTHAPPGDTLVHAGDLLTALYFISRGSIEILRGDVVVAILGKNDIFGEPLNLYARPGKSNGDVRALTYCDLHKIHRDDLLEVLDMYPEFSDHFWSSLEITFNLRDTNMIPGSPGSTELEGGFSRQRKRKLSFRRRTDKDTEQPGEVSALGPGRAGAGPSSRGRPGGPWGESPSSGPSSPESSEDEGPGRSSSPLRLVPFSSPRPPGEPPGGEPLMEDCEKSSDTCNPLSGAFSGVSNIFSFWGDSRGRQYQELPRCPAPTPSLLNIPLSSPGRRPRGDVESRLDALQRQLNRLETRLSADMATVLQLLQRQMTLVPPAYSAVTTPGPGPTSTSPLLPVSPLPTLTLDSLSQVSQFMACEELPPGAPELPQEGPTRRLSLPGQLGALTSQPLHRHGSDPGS

| SMILES | hERG current change (%, negative = inhibition) at 1uM [%] |
| --- | --- |
| COc1ccc(C(=O)C2CCCN(C(=O)/C=C/c3ccccn3)C2)c(C)c1 (stereo not shown) | 5.84 |
| COc1ccc(Br)cc1CN(C)CC(=O)NCCc1ccc(S(N)(=O)=O)cc1 | 6.73 |
| CC1CC(C)CN(C(=O)c2cccc3c2-c2ccccc2C3=O)C1 (stereo not shown) | 8.39 |
| C=C(C)Cn1c(=O)c(NC(=O)c2ccccc2)c2n(c1=S)CCC2 | 3.55 |
| CCCC(=O)c1ccc(N2CCCCCC2)c(F)c1 | -0.404 |
| CCN(C(=O)COc1cc(=O)n(CC)c2ccccc12)c1cccc(Cl)c1 | -6.04 |
| Cc1nc(SCC(=O)c2cccc([N+](=O)[O-])c2)n[nH]1 | 12.9 |
| O=C(O)c1cccc(Nc2c3ccccc3nc3ccccc23)c1 | 15.9 |
| Cc1ccc(Cl)cc1NC(=O)CC1NCCNC1=O (stereo not shown) | 3.11 |
| COc1cc(C(CCN2CCOCC2)c2c(OC)cc(OC)c3c2OC(=O)CC3c2ccc(N(C)C)cc2)cc(OC)c1OC (stereo not shown) | 6.92 |
| CCC(=O)N1CCN(c2ccc(NC(=O)COc3cccc(C)c3C)cc2)CC1 | -2.72 |
| CCN(C(=O)COC(=O)COc1ccc2c(C)cc(=O)oc2c1)C1CCS(=O)(=O)C1 (stereo not shown) | 4.83 |
| Cc1cc(C)c2c(c1)-c1c(ssc1=S)C(C)(C)N2C(=O)CN1C(=O)c2ccccc2C1=O | -2.88 |
| O=C(Nc1cccc(C(=O)N2CCOCC2)c1)c1ccccc1Cl | -4.58 |
| N#Cc1c(NCCCO)nc(NCc2ccccc2)c2c1CCN(Cc1ccccc1)C2 | -11.8 |
| COc1ccc(-c2cn3cccnc3n2)cc1Br | 9.34 |
| CC1CC(C)CN(S(=O)(=O)c2cc(C(=O)O)c(Cl)s2)C1 (stereo not shown) | -6.21 |
| CCn1cc(C(=O)N[C@H](C(=O)NCCCOC)C(C)C)c(=O)c2cc3c(cc21)OCO3 | 9.14 |
| CCOc1ccc(NCc2nnc(SCC(=O)Nc3nc(-c4ccccc4)cs3)n2-c2ccccc2)cc1 | 4.76 |
| COc1ccc(C2NC(=O)NC3=C2C(=O)CCC3)cc1 (stereo not shown) | 13.5 |
| CC(C)c1ccc(OCC(=O)Nc2ccc3oc(=O)ccc3c2)cc1 | 14.9 |
| O=C(CSc1ccc([N+](=O)[O-])cn1)Nc1ccc2c(c1)OCCO2 | 11.1 |

| SMILES | hERG current change (%, negative = inhibition) at 1uM [%] |
| --- | --- |
| CN(C(=O)COC(=O)c1cc(S(=O)(=O)N2CCCCC2)ccc1Cl)c1ccccc1 | 0.742 |
| O=C(NCCCn1ccnc1)c1cc2c(s1)CCCC2 | 7.42 |
| CCOC(=O)c1ccc(NC(=S)N2CCCC(C(=O)N3CCCC3)C2)cc1 (stereo not shown) | 10.8 |
| CCOc1ccc(OCC(=O)Nc2ccc(S(=O)(=O)Nc3cc(C)nc(C)n3)cc2)cc1 | 18.3 |
| Cc1cc(C)c2nc(NC(=O)C3CSC4(C)CCC(=O)N34)sc2c1 (stereo not shown) | 20.8 |
| CC(C)(C)c1ccc(-c2n[nH]c(=S)n2CCCN2CCOCC2)cc1 | 21.2 |
| COc1ccc2[nH]c(=O)c(CN(Cc3cccnc3)S(=O)(=O)c3ccccc3F)cc2c1 | 7.89 |
| c1ccc(-n2c(-c3ccncc3)nnc2N2CCOCC2)cc1 | 11.6 |
| O=C(CSc1ccccc1C(=O)O)NC1CCCCCCC1 | 14.9 |
| O=C(N/N=C/c1cc(Br)c(O)c(Br)c1O)c1cccnc1 | 4.28 |
| Cc1nn(CC(=O)N2CCC(C)CC2)c(=O)c2nn(-c3ccccc3)c(C)c12 | 16.3 |
| CSC1=N/C(=C\c2ccc(Cl)cc2)C(=O)N1N(C)C | 13.6 |
| CCOC(=O)C1(CCOc2ccccc2)CCN(Cc2ccc(CO)o2)CC1 | -33.7 |
| Cc1c(CN(C)C)c2c(n1C)C(=O)c1ccc(Br)cc1-2.Cl | -2.4 |
| O=[N+]([O-])c1cc(O)c(O)c([N+](=O)[O-])c1 | 9.9 |
| Cc1nn(CC(=O)NCC2CCCO2)c(=O)c2cc3ccccc3n12 (stereo not shown) | 8.41 |
| CC1CCCCC1NC(=O)CNC(=O)c1cccs1 (stereo not shown) | 8.4 |
| CCOC(=S)SCC(=O)N1CCc2ccccc2C1C1C(=O)CC(C)(C)CC1=O (stereo not shown) | 9.52 |
| CCC(Cc1ccccc1)NCc1c(C(=O)O)c(C)n(Cc2ccccc2)c1C (stereo not shown) | 14.6 |
| O=C(O)C1CCN(C(=O)CSc2nc3cc(Cl)ccc3c(=O)n2Cc2ccccc2)CC1 | 8.17 |
| O=C(CSc1ccccn1)Nc1ccc2c(c1)CCC2 | 10.7 |
| O=C(N/N=C\c1ccc(O)c([N+](=O)[O-])c1)C1COc2ccccc2O1 (stereo not shown) | 2 |

| SMILES | hERG current change (%, negative = inhibition) at 1uM [%] |
| --- | --- |
| COC(=O)CN1C(=S)N(c2ccc(OC)cc2)C(=O)/C1=C/c1ccc(OC)cc1 | 16.9 |
| Cc1occc1C(=O)Nc1c(Cl)cccc1Cl | 2.45 |
| Cc1ccc(-n2[nH]c(C)c(C=Nc3ccc(S(=O)(=O)Nc4nccs4)cc3)c2=O)c(C)c1 | -0.109 |
| CCOC(=O)C1CCN(/C=C2/C(=O)NC(=S)N(c3ccccc3F)C2=O)CC1 | 9.16 |
| CC(C)(C)C(=O)NC1CCN(CC(=O)Nc2ccc3c(c2)OCO3)CC1 | 21.2 |
| Fc1ccc(NCc2nnc(SCc3nnc(-c4ccccc4)o3)n2Cc2ccccc2)cc1 | -3.89 |
| CCN(CC(=O)Nc1cc(C)nn1-c1nc(C)cc(C)n1)Cc1ccccc1 | -3.97 |
| COc1ccc(-c2cc(C(=O)N/N=C(\C)c3ccco3)c3ccccc3n2)c(OC)c1 | 13.7 |
| CCCCC(=O)Nc1ccc(C(=O)Nc2ccc(S(=O)(=O)Nc3ccc(C)cc3)cc2)cc1 | 10.5 |
| O=C(COc1ccccc1)Nc1cccc(-c2nc3cc4ccccc4cc3[nH]2)c1 | -5.61 |
| COc1ccc(C(=O)N/N=C/C23CC[C@@H](O)CC2(O)CC[C@@H]2[C@@H]3CCC3(C)C(C4=CC(=O)OC4)CCC23O)cc1 (stereo partly shown) | 12.9 |
| CCOc1ccc(/C=N/NC(=O)C2CC2)c(OCC)c1 | 8.23 |
| CC(C)CCNC(=O)COC(=O)c1cc(Br)c(Br)s1 | 10.1 |
| CCn1cc(C(=O)Nc2sc(C)c(C)c2C(=O)OC)cn1 | 7.11 |
| COc1ccc(CCN(C)C(=O)C2CCCN(Cc3ccc(OC)c(OC)c3)C2)cc1OC.O=C(O)C(=O)O (stereo not shown) | 6.13 |
| O=C(c1c(F)cccc1F)N1CCCC(c2nc(-c3cccs3)no2)C1 (stereo not shown) | 7.95 |
| CCCCCCC(=O)N/N=C(\C)Cc1ccccc1 | 17.8 |
| O=C(CN1CCN(c2cccc(Cl)c2)CC1)N1CCCC1 | 12.5 |
| NC(=O)COc1c(-c2ccccc2)oc2ccccc2c1=O | -0.934 |
| Cc1occc1C(=O)NNC(=O)c1cccc(F)c1 | 16.3 |
| N#Cc1cc[n+](CC(=O)c2ccc(NC(=O)c3ccccc3)cc2)cc1.[Br-] | -5.22 |
| CN(C)c1nc(-c2ccccc2)c2cc(Cl)ccc2n1 | 10.4 |

| SMILES | hERG current change (%, negative = inhibition) at 1uM [%] |
| --- | --- |
| CN(C)N1C(N)=C(C#N)C(c2ccc(Br)cc2)C2=C1CCCC2=O (stereo not shown) | -15.7 |
| Fc1ccc(-c2cnc3n2CCCCC3)cc1 | 10.4 |
| COc1ccccc1NC(=O)COc1ccc(Br)cc1CO | -1.47 |
| C/C(=N\NC(=O)c1c[nH]c2ccccc12)c1ccco1 | 14.3 |
| O=C(CCN1C(=O)C2C3C=CC(C3)C2C1=O)Nc1c(F)cc(F)cc1Br (stereo not shown) | 10.8 |
| CCOc1ccc(NS(=O)(=O)c2ccc(NC(=O)[C@@H]3CCCC[C@@H]3C(=O)O)cc2)cc1 | 4.82 |
| C[C@H]1C[C@H]2[C@@H]3CCC4=CC(=O)C=C[C@]4(C)[C@@]3(F)[C@@H](O)C[C@]2(C)[C@@]1(O)C(=O)CO | 0.193 |
| CN(c1ccccc1)S(=O)(=O)c1ccc(Cl)c(C(=O)OCC(=O)NC2CCS(=O)(=O)C2)c1 (stereo not shown) | 7.14 |
| CCOc1cc(/C=N/NC(=O)C2CCCC2)ccc1O | 4.9 |
| CCOC(=O)N1CCN(C(=O)c2csc3c2CCCCC3)CC1 | 15.7 |
| COc1cccc(C(=O)Nc2ccc(C(=O)O)cc2)c1 | 8.76 |
| Cc1cc(O)ccc1N1C(=O)c2cccc3cc([N+](=O)[O-])cc(c23)C1=O | 11.3 |
| Cc1cccc(NC(=S)N(CCN(C)C)C(C)c2cccnc2)c1 (stereo not shown) | 1.67 |
| Cc1ccccc1C(=O)NC1CCN(CC(=O)Nc2c(C)cccc2C)CC1 | 8.55 |
| O=C(NNC(=O)c1cc(OCC(F)(F)F)ccc1OCC(F)(F)F)c1ccc(Cl)c(Cl)c1 | 10.9 |
| CC(CO)(CO)N=Cc1c(O)n(-c2cccc3ccccc23)c(=O)[nH]c1=O | 12.7 |
| O=C(CSc1nnc(CN2CCOCC2)n1-c1ccccc1)N1CCc2ccccc21 | 10.6 |
| COc1ccccc1C(=O)NC(CCSC)C(=O)N1CCN(C/C=C/c2ccccc2)CC1 (stereo not shown) | -42.1 |
| CCN1C(=O)[C@H]2[C@@H](c3ccc(C)cc3)N3C(=O)N(c4ccccc4)C(=O)[C@@]3(Cc3ccccc3)[C@H]2C1=O | 6.44 |
